The other results are listed elsewhere or left out.
What was measured:
Test in all cases: glycan array binding signal (z-score within array); higher = stronger binding
Conditions in all cases: glycan notation: IUPAC condensed, linker removed
[1] = molecular target: Man(b1-4)GlcNAc
Procedure, shortened: (§1)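 Negative Z-scores can be read as non-binding. The Z-score is calculated within each array and then averaged across arrays of one protein sequence at different concentrations or buffers and across linkers. Arrays, 3228 in all, were curated from the Consortium for Functional Glycomics database and kept only where the protein sequence was available.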

[2] = molecular target: Neu5Ac(a2-3)Gal
Procedure, shortened: as §1

[3] = molecular target: Neu5Ac(a2-3)Gal(b1-3)GalNAc
Procedure, shortened: as §1

[4] = molecular target: Neu5Ac(a2-3)Gal(b1-3)GalNAc(b1-3)Gal(a1-4)Gal(b1-4)Glc
Procedure, shortened: as §1

[5] = molecular target: Neu5Ac(a2-3)Gal(b1-3)GalNAc(b1-3)Gal(b1-4)GlcNAc
Procedure, shortened: as §1

[6] = molecular target: Neu5Ac(a2-3)Gal(b1-3)GalNAc(b1-4)[Neu5Ac(a2-3)]Gal(b1-4)Glc
Procedure, shortened: as §1

[7] = molecular target: Neu5Ac(a2-3)Gal(b1-3)GalNAc6S
Procedure, shortened: as §1

[8] = molecular target: Neu5Ac(a2-3)Gal(b1-3)GlcNAc
Procedure, shortened: as §1

[9] = molecular target: Neu5Ac(a2-3)Gal(b1-3)GlcNAc(b1-3)Gal(b1-3)GlcNAc
Procedure, shortened: as §1

[10] = molecular target: Neu5Ac(a2-3)Gal(b1-3)GlcNAc6S
Procedure, shortened: as §1

[11] = molecular target: Neu5Ac(a2-3)Gal(b1-3)[Fuc(a1-4)]GlcNAc
Procedure, shortened: as §1

[12] = molecular target: Neu5Ac(a2-3)Gal(b1-3)[Fuc(a1-4)]GlcNAc(b1-3)Gal(b1-3)[Fuc(a1-4)]GlcNAc
Procedure, shortened: as §1

[13] = molecular target: Neu5Ac(a2-3)Gal(b1-3)[Fuc(a1-4)]GlcNAc(b1-3)Gal(b1-4)[Fuc(a1-3)]GlcNAc
Procedure, shortened: as §1

[14] = molecular target: Neu5Ac(a2-3)Gal(b1-3)[Neu5Ac(a2-3)Gal(b1-4)]GlcNAc
Procedure, shortened: as §1

[15] = molecular target: Neu5Ac(a2-3)Gal(b1-3)[Neu5Ac(a2-6)]GalNAc
Procedure, shortened: as §1

[16] = molecular target: Neu5Ac(a2-3)Gal(b1-4)Glc
Procedure, shortened: as §1

[17] = molecular target: Neu5Ac(a2-3)Gal(b1-4)GlcNAc
Procedure, shortened: as §1

[18] = molecular target: Neu5Ac(a2-3)Gal(b1-4)GlcNAc(b1-2)Man(a1-3)[GlcNAc(b1-2)Man(b1-4)GlcNAc(b1-2)Man(a1-6)]Man(b1-4)GlcNAc(b1-4)GlcNAc
Procedure, shortened: as §1

[19] = molecular target: Neu5Ac(a2-3)Gal(b1-4)GlcNAc(b1-2)Man(a1-3)[Neu5Ac(a2-6)Gal(b1-4)GlcNAc(b1-2)Man(a1-6)]Man(b1-4)GlcNAc(b1-4)GlcNAc
Procedure, shortened: as §1

[20] = molecular target: Neu5Ac(a2-3)Gal(b1-4)GlcNAc(b1-3)Gal(b1-3)GlcNAc
Procedure, shortened: as §1

[21] = molecular target: Neu5Ac(a2-3)Gal(b1-4)GlcNAc(b1-3)Gal(b1-4)GlcNAc
Procedure, shortened: as §1

[22] = molecular target: Neu5Ac(a2-3)Gal(b1-4)GlcNAc(b1-3)Gal(b1-4)GlcNAc(b1-3)Gal(b1-4)GlcNAc
Procedure, shortened: as §1

[23] = molecular target: Neu5Ac(a2-3)Gal(b1-4)GlcNAc(b1-3)Gal(b1-4)[Fuc(a1-3)]GlcNAc
Procedure, shortened: as §1

[24] = molecular target: Neu5Ac(a2-3)Gal(b1-4)GlcNAc(b1-3)GalNAc
Procedure, shortened: as §1

[25] = molecular target: Neu5Ac(a2-3)Gal(b1-4)GlcNAc(b1-6)[Gal(b1-3)]GalNAc
Procedure, shortened: as §1

[26] = molecular target: Neu5Ac(a2-3)Gal(b1-4)GlcNAc(b1-6)[Neu5Ac(a2-3)Gal(b1-3)]GalNAc
Procedure, shortened: as §1

[27] = molecular target: Neu5Ac(a2-3)Gal(b1-4)GlcNAc6S
Procedure, shortened: as §1

[28] = molecular target: Neu5Ac(a2-3)Gal(b1-4)[Fuc(a1-3)]GlcNAc
Procedure, shortened: as §1

[29] = molecular target: Neu5Ac(a2-3)Gal(b1-4)[Fuc(a1-3)]GlcNAc(b1-3)Gal
Procedure, shortened: as §1

[30] = molecular target: Neu5Ac(a2-3)Gal(b1-4)[Fuc(a1-3)]GlcNAc(b1-3)Gal(b1-4)GlcNAc
Procedure, shortened: as §1

B1: Eap (Staphylococcus aureus), A0A7L5PYT7 (protein)
chain: MKFKSLITTTLALGVLASTGANFNNNEAAAAAKPLDKSSSSLHHGYSKVHVPYAITVNGTSQNILSSLTFNKNQNISYKDLEDRVKSVLKSDRGISDIDLRLSKQAKYTVYFKNGTKKVIDLKAGIYTADLINTSEIKAININVDTKKQVEDKKKDKANYQVPYTITVNGTSQNILSNLTFNKNQNISYKDLEDKVKSVLESNRGITDVDLRLSKQAKYTVNFKNGTKKVIDLKSGIYTANLINSSDIKSININVDTKKHIENKAKRNYQVPYSINLNGTSTNILSNLSFSNKPWTNYKNLTSQIKSVLKHDRGISEQDLKYAKKAYYTVYFKNGGKRILQLNSKNYTANLVHAKDVKRIEITVKTGTKAKADRYVPYTIAVNGTSTPILSDLKFTGDPRVGYKDISKKVKSVLKHDRGIGERELKYAKKATYTVHFKNGTKKVININSNISQLNLLYVQDIKKIDIDVKTGTKAKADSYVPYTIAVNGTSTPILSKLKISNKQLISYKYLNDKVKSVLKSERGISDLDLKFAKQAKYTVYFKNGKKQVVNLKSDIFTPNLFSAKDIKKIDIDVKQYTKSKKNK
[1]
  glycan array binding signal (z-score): 0.556
[2]
  glycan array binding signal (z-score): -0.326
[3]
  glycan array binding signal (z-score): -0.55
[4]
  glycan array binding signal (z-score): -0.484
[5]
  glycan array binding signal (z-score): -0.51
[6]
  glycan array binding signal (z-score): -0.511
[7]
  glycan array binding signal (z-score): -0.192
[8]
  glycan array binding signal (z-score): -0.409
[9]
  glycan array binding signal (z-score): -0.437
[10]
  glycan array binding signal (z-score): 0.023
[11]
  glycan array binding signal (z-score): -0.188
[12]
  glycan array binding signal (z-score): 0.171
[13]
  glycan array binding signal (z-score): -0.587
[14]
  glycan array binding signal (z-score): -0.558
[15]
  glycan array binding signal (z-score): 0.25
[16]
  glycan array binding signal (z-score): -0.329
[17]
  glycan array binding signal (z-score): -0.256
[18]
  glycan array binding signal (z-score): -0.467
[19]
  glycan array binding signal (z-score): -0.541
[20]
  glycan array binding signal (z-score): -0.614
[21]
  glycan array binding signal (z-score): -0.354
[22]
  glycan array binding signal (z-score): -0.603
[23]
  glycan array binding signal (z-score): -0.528
[24]
  glycan array binding signal (z-score): 0.372
[25]
  glycan array binding signal (z-score): -0.505
[26]
  glycan array binding signal (z-score): -0.533
[27]
  glycan array binding signal (z-score): -0.572
[28]
  glycan array binding signal (z-score): -0.563
[29]
  glycan array binding signal (z-score): -0.616
[30]
  glycan array binding signal (z-score): 0.303

Reference: the supplement of paper PMC8728848
